Measured values reported in the supplement of paper PMC11417369.
The other results are listed elsewhere or left out.

Tested on: PfSIP2 AP2 domain 1 (GST-tagged)
Experiment: gcPBM binding intensity (ln(normalized median fluorescence intensity)); higher = stronger DNA binding
Summary of the method: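 GST-tagged P. falciparum DNA-binding domains produced in E. coli were incubated for 1 h on an Agilent 4 × 180k array of primer-extended double-stranded 36-bp intergenic genomic probes with negative controls. Binding intensity is the highest Masliner-normalised natural-log median intensity across replicate spots of either probe orientation, with bound protein detected by Alexa488 anti-GST antibody at 488 nm.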

Row | Sequence | gcPBM binding intensity (ln)
1 | AAATTAAAGGCATAAAAGAAAATATTTAATAAAAAA [CACACA_negctrl_site1689] | 6.57
2 | ACCAGTTCTTAATACAAATATGTACATATATATATA [GTGCAC_negctrl_site56] | 9.11
3 | TTTTTTTTAATTGTGATACGTATATTATTTAATGAT [CACACA_negctrl_site38] | 7.16
4 | TATTCGTCTTTTTTCTCACACACCCTTTTTATTAAA [CACACA_site2508] | 7.5
5 | TATTTCATCTTATTTTAGGAAAAACTAATATATAAG [CACACA_negctrl_site1823] | 6.91
6 | AAATTTAGGAACATTATATATATATATATATATATA [CACACA_negctrl_site862] | 9.4
7 | GAACATTTGAAATATGCACACATGTATAAACCTACA [CACACA_site2654] | 7.47
8 | TAAAAATAAAGAAAATGTACATAAATAATAATACAT [XGTACX_site2278] | 6.99
9 | CAAAAAAAGGAAAAGATACACACCGTAAATTAAAAT [CACACA_site3612] | 6.73
10 | TGTGCATAATTTTGTGCACACCACGCTAATAATTTT [CACACA_site2915] | 10.9
11 | GGAATAAATAATATTATACACACGTATATTATTATA [CACACA_site2435] | 6.83
12 | AAGCTTTCATAAAGATGTACTTTTTAAAAATAATCT [XGTACX_site5725] | 7.11
13 | AAAATAAAAAATTAATGTACTTAGAATTGTCACTAA [XGTACX_site1346] | 6.79
14 | TTTTTCATGTTTATTAGTACATATATTAAGAATGGA [XGTACX_site3493] | 7.32
15 | ACCTATTTATAATAGTGTACGTACAAATTTGTTTAC [XGTACX_site8176] | 8.33
16 | TTTTGTAAATATATATGTACATATATATATATATAT [XGTACX_site5803] | 9.12
17 | AATTTGTTGAAACACACACACACATACATATATATA [CACACA_site2287] | 7.39
18 | TAAAATAATAAACAGAAGAAATCATTCATATAAAAA [XGTACX_negctrl_site502] | 6.59
19 | ATAAATATATGATAAAGTACATATTTATATAATAAA [XGTACX_site7263] | 6.88
20 | TGATATTATATATATACACACATGTATGTATATATA [CACACA_site1364] | 6.88
21 | ATATTTATTTATAATTGTACTAATAATATATTTTAA [XGTACX_site587] | 6.89
22 | ATGTATCTATATATATGTACACATATTTTAATTAAA [XGTACX_site3673] | 7.34
23 | TATATACACGCACATACACACAAATAAAAAAACACC [CACACA_site7578] | 8.23
24 | TGTGTTGTAATTAAAACACACATGAAAAAATTAAAA [CACACA_site51] | 6.9
